Among all 50,000 compounds or so, about 800 (1.6%) showed an effect of 50% or more. Some of the results follow.

This assay deals with Bcl-2-like protein 10 (Homo sapiens) (UniProt Q9HD36). As to the kind of experiment: Phenotype converters, Bcl-B/TR3 peptide binding displacement, primary biochemical FP (AID 1240).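 Note: 0% = Bcl-B with tracer peptide and DMSO and 100% = tracer peptide lacking Bcl-B.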 The settings on record: GST-Bcl-B / FITC-TR3 peptide fluorescence polarization; stronger effect = higher value; compound at 3.75 mg/L.
Chain of UniProt Q9HD36 (Q9HD36 whole entry, looked up): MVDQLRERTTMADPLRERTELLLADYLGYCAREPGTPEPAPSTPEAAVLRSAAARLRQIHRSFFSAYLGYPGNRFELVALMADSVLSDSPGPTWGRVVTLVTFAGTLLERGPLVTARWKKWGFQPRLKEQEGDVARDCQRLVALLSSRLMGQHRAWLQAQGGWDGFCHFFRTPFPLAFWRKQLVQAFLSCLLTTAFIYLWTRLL
For the compound `C=CCc1cccc2cc(C(=O)N3CCN(c4ccccn4)CC3)c(=O)oc12`, the displacement is 8%. The value for `CCc1ccc(N2C(=O)NC(=O)/C(=C\c3ccc(OCC(=O)O)c(OC)c3)C2=O)cc1` was 9.9%; that for `O=C(CNC(=O)c1ccccc1)c1ccc(Br)cc1` was -6.3%; that for `COc1ccc(COC(=O)C2=C(C)NC3=C(C(=O)CC(C)(C)C3)C2c2ccc(F)c(F)c2)cc1` (configuration not stated) was 9.5%.

Turning to `CC1(C)CC(=O)C(N=Nc2cc(C(=O)Nc3ccccc3)ccc2Cl)=C(O)C1`, the displacement is 6.6%.

With `CC(=O)OCCCN1C(=O)c2ccc([N+](=O)[O-])cc2C1=O`, the displacement is 8.6%.

As for `C/C(=N\N=C\c1cccc([N+](=O)[O-])c1)C1C(=O)c2ccccc2C1=O`, the displacement worked out at 14.8%.

With `COc1ccc(Cl)cc1NCN1C(=O)S/C(=C/c2ccccc2)C1=O`, the displacement was found to be 9.5%. In the case of `O=C(CN1C(=O)c2ccccc2C1=O)Nc1ccc(Br)cc1`, the displacement is 2.6%. The value for `O=c1[nH]c(=O)c2nc3cc([N+](=O)[O-])ccc3nc2[nH]1` was 42.6%. Consider `COc1ccccc1NC1=C(Cl)C(=O)N(c2cccc(C)c2)C1=O`, for which the displacement is -9.4%. The value for `O=C(/C=C/c1ccco1)c1cccs1` was 3.3%.

`COc1ccc(OC)c(/C=N/NC(=O)C(=O)N2CCCCCC2)c1`: the displacement was -11%.

With `Cc1ccc(N=Cc2c(O)n(-c3ccccc3C)c(=O)[nH]c2=O)cc1`, the displacement came to 9.2%. Consider `COc1ccc(CN2CCN(Cc3cccn3C)CC2)c(OC)c1`, for which the displacement turned out to be 14.4%.

As for `Cc1cc([N+](=O)[O-])ccc1N1C(=O)C2C3c4ccccc4C(c4ccccc43)C2C1=O` (configuration not stated), the displacement came to 12%. Turning to `CCc1ccc(N2CC(C(=O)Nc3cccc4ccccc34)CC2=O)cc1` (configuration not stated), the displacement turned out to be 9.5%. As for `O=C(Nc1ncc(Cc2ccc(Cl)cc2Cl)s1)c1ccccc1`, the figure is 4.1%; as for `CC(=O)OC(c1c(F)c(F)c(F)c(F)c1F)c1c(F)c(F)c(F)c(F)c1F`, 3%; as for `CC(=O)N(Cc1ccncc1)c1cccc2ccccc12`, 2.4%. In the case of `COc1cccc(/C=C2\N=C(c3ccccc3Br)OC2=O)c1`, the displacement was determined as 33.4%.

Turning to `COc1ccccc1N1CCN(C2CC(=O)N(c3ccc(C(=O)O)cc3)C2=O)CC1` (configuration not stated), the displacement is -3.7%. In the case of `Cc1ccc(CN=Cc2ccc(OC3CSC3)cc2)cc1`, the displacement was -0.2%. The value for `CCOP(=O)(OCC)C(Nc1cc(Cl)cc(Cl)c1)c1ccc(Br)cc1` (configuration not stated) was 1.9%. As for `COc1cccc(C2C(C(=O)/C=C/c3ccccc3)=C(O)C(=O)N2CCCCCC(=O)O)c1` (configuration not stated), the figure is -2.9%; as for `Cc1ccc(N2NC(=O)/C(=C/c3ccccc3)C2=O)cc1C`, 4.6%; as for `O=C(O)c1ccc(SC(C(=O)O)c2ccccc2)cc1` (configuration not stated), 11.2%. Consider `COC(=O)C1=NNC2C(=O)N(Cc3ccccc3)C(=O)C12` (configuration not stated), for which the displacement was -1.6%. Take `COc1ccc(CCNC(=O)COc2ccccc2C)cc1OC`: the displacement amounted to 4.5%.

As for `Cc1cc(C)c2oc(-c3ccc(C)c(NC(=O)c4cccc([N+](=O)[O-])c4C)c3)nc2c1`, the displacement stood at 4%. For `COC(=O)c1c(NC(=O)C2C3CCC(C3)C2C(=O)O)sc(C)c1-c1ccc(C)cc1` (configuration not stated), the displacement is -1.1%.

Take `C(=C\c1nnc(-c2ccccc2)o1)/c1ccccc1`: the displacement amounted to 4.9%. The value for `CC1(C)C(=O)N(Cc2ccc(Cl)c(Cl)c2)c2ccccc2N1C(=O)c1ccc([N+](=O)[O-])cc1` was 0.4%.

As for `O=C1S/C(=C\c2ccccc2)C(=O)N1Cc1ccccc1`, the displacement was 1.1%. For the compound `Cc1ccc(N2C(=O)c3cccc([N+](=O)[O-])c3C2=O)c(C)c1`, the displacement was found to be 4.5%. As for `CN(C)c1ccc(/C=N/OC(=O)Nc2ccccc2)cc1`, the figure is 1.6%; as for `COc1ccc(C(=O)NC(Nc2ccc(Cl)cc2)C(Cl)(Cl)Cl)cc1OC` (configuration not stated), 10.8%.

For `Cc1ccccc1-c1nc2cc(NC(=O)c3ccccc3[N+](=O)[O-])ccc2o1`, the displacement turned out to be 15%. As for `COCCOC(=O)C1=C(C)NC(=O)NC1c1ccc(C)s1` (configuration not stated), the displacement is -11%. `COc1ccc2c(c1)C1C=CCC1C(c1cccc([N+](=O)[O-])c1)N2` (configuration not stated): the displacement is -2.3%.

As to `O=C(Nc1ccc(I)cc1)C1c2ccccc2Oc2ccccc21`, the displacement was determined as 1.4%. In the case of `C(=N/Nc1nc2ccccc2s1)/c1ccc(N2CCOCC2)cc1`, the displacement was -18.2%. Take `CCN(CC)S(=O)(=O)c1ccc(NC(=O)Nc2ccccc2)cc1`: the displacement was -3.3%.

As for `COc1cc(/C=C2\C(=O)N(c3ccc(S(N)(=O)=O)cc3)N=C2C)cc(Br)c1O`, the displacement is 10.5%. As to `O=C1NC(c2ccccc2)=C(c2ccc3ccccc3n2)C(c2cccc([N+](=O)[O-])c2)N1` (configuration not stated), the displacement came to 7.8%.

For the compound `O=C(O)CCCC(=O)Nc1nc(-c2ccc(F)cc2)cs1`, the displacement was 0%.

Turning to `Cc1ccc(-c2nnc(NC(=O)c3ccccc3C)s2)cc1`, the displacement was determined as 3.9%.

As for `O=C1c2cccc3cccc(c23)C(=O)N1/N=C/c1cccc([N+](=O)[O-])c1`, the displacement worked out at 11%. As for `CC(C)=C1C2C=CC1C1C(=O)N(c3cc(C(F)(F)F)ccc3Cl)C(=O)C21` (configuration not stated), the displacement is 16%.

In the case of `O=C(Cc1ccccc1)Nc1ccc(-c2nc3ccccc3[nH]2)cc1`, the displacement is -0.6%. As for `O=C(Nc1ccc2ccccc2c1)C1CC(=O)N(c2ccccc2)C1` (configuration not stated), the figure is 3.8%; as for `Cc1ccccc1OCC(=O)N/N=C\C=N\NC(=O)COc1ccccc1C`, -2.5%.

`O=C(Nc1ccccc1)c1c(NC(=S)Nc2ccccc2)sc2c1CCCC2`: the displacement came out at 3.9%. The value for `O=C(CSc1nc(O)c(C(c2ccccc2)c2ccccc2)c(=O)[nH]1)N1CCOCC1` was 11.6%; that for `O=C(CN(c1cccc(Br)c1)S(=O)(=O)c1ccccc1)NCCc1ccccc1` was 7.1%. The value for `CC1(C)OC(=O)C(=C2CCCN2)C(=O)O1` was -17.1%.

As for `Cc1c(NC(=O)Nc2cccc(Cl)c2)c(=O)n(-c2ccccc2)n1C`, the displacement was found to be 1.2%. Consider `C/C(=N/NC(=O)COc1ccc(C)cc1)c1ccc([N+](=O)[O-])cc1`, for which the displacement was determined as 1.6%. Regarding `O=C(Nc1cccc([N+](=O)[O-])c1)c1cccc(F)c1`, the displacement is -8.1%. For `Cc1cc(NC(=O)c2ccc(Cl)cc2)n(-c2ccccc2)n1`, the displacement was -5.6%. As to `COc1cccc(OC)c1C(=O)NNC(=O)c1ccc(F)cc1`, the displacement was -5.1%. With `COc1ccccc1OCCCCCCN1CCCC1`, the displacement came out at 11.1%. The value for `COc1cc(NC(=O)c2cccc(Cl)c2)ccc1NC(=O)c1ccco1` was 8.1%; that for `CCCCSc1nc2sc3c(c2c(=O)n1-c1ccc(OC)cc1)CC(C)(C)OC3` was -8.3%; that for `O=C(Nc1ccccc1O)c1ccc(C(=O)c2ccccc2)o1` was -8.1%. The value for `CCCCCC(=O)N1c2ccccc2NC2=C(C(=O)CC(c3ccc(OC)cc3)C2)C1c1ccco1` (configuration not stated) was -3.9%; that for `COc1ccc(-c2cc(C(F)(F)F)n3nc(C(N)=O)c(Cl)c3n2)cc1OC` was 33.4%; that for `CC(C)(C)c1ccc(C(c2ccccc2)C2([N+](=O)[O-])C(=O)c3ccccc3C2=O)cc1` (configuration not stated) was -8.6%. In the case of `O=C(CP(=O)(c1ccccc1)c1ccccc1)c1ccccc1`, the displacement worked out at 14.4%. For `CCCN(CCC)C(=O)c1cccc([N+](=O)[O-])c1C`, the displacement stood at 4.8%. As for `COCCCNC(=O)CN(c1ccc(C)cc1)S(C)(=O)=O`, the figure is -1.5%; as for `Cc1onc(-c2ccccc2)c1C(=O)Nc1cccc(Cl)c1`, -2.5%; as for `Oc1c(/C=N/Nc2nc3ccccc3s2)sc2ccccc12`, -8.6%. Take `C=CCN1C(=O)/C(=C\c2ccc(OCc3ccc(Br)cc3)c(OC)c2)SC1=S`: the displacement is -11.3%.

Turning to `O=C(Nc1ccc(Cl)c(Cl)c1)Nc1nnc(-c2ccc([N+](=O)[O-])cc2)s1`, the displacement is 14.3%. As for `Cc1ccc(-n2ncnc2-c2ccc(Cl)cc2)cc1Cl`, the figure is -10.1%. Take `COc1ccc(OCC(=O)N2c3ccccc3Sc3ccc(Cl)cc32)cc1`: the displacement was found to be 2.5%. The value for `Cc1ccc(N2CC(C(=O)Nc3c(C)cc(C)cc3C)CC2=O)cc1` (configuration not stated) was 5.3%; that for `CCOC(=O)N1CCN(C(=O)c2ccc(C#Cc3ccccc3)cc2)CC1` was 0.4%. As to `Cc1ccc(NC(=O)c2c(C(=O)O)cccc2[N+](=O)[O-])c(Br)c1`, the displacement turned out to be 15.4%.

For the compound `COc1ccc(C2/C(=C(/O)c3ccccc3)C(=O)C(=O)N2Cc2ccccc2)c(OC)c1` (configuration not stated), the displacement was -18.5%. Turning to `O=C(CN1C(=O)c2cccc([N+](=O)[O-])c2C1=O)Nc1nc(-c2ccccc2)cs1`, the displacement is -0.3%. Take `N#Cc1c(NC(=O)CN2C(=O)c3cccc4cccc(c34)C2=O)sc2c1CCCC2`: the displacement was -6.7%.

For `CCOc1ccc(NC(=O)c2c(NC(=O)C(C)(C)C)sc3c2CCC3)cc1`, the displacement is -9.5%. As for `Cc1cc(=O)oc2cc3occ(-c4ccccc4)c3cc12`, the figure is -1%; as for `COc1cc(OC)cc(-c2nc3ccc(C)cc3c(=O)o2)c1`, -17.8%; as for `COc1ccc(C2CC(C(F)(F)F)n3nc(C(=O)Nc4ccc5c(c4)OCO5)cc3N2)cc1` (configuration not stated), 5.6%. Consider `COc1cc(C(=O)NCc2ccc(F)cc2)cc(OC)c1OC`, for which the displacement is -7.6%. As for `Cc1ccc(Cl)cc1NC(=O)C1CCCCC1C(=O)O` (configuration not stated), the displacement came out at 7%. The value for `COC(=O)CCCC[C@H]1SC[C@H]2NC(=O)NC21O` (some centres not stated) was 6.6%; that for `CCOc1ccccc1NC(=O)c1ccc([N+](=O)[O-])cc1` was 11%; that for `O=C(Nc1cc(C(F)(F)F)ccc1N1CCOCC1)c1ccc(Cl)c([N+](=O)[O-])c1` was -3.7%. `CCOc1cc(/C=C2\C(=O)NN(c3ccccc3)C2=O)cc(Cl)c1O`: the displacement was -161%. As for `CC1CC(O)N(C(=O)c2ccccc2O)N1C` (configuration not stated), the figure is 9.3%; as for `Fc1cccc(Cl)c1-c1nnc2ccc3ccccc3n12`, 7.1%. The value for `O=C1c2ccc(-c3nc4ccccc4c(=O)o3)cc2C(=O)N1c1ccccc1[N+](=O)[O-]` was 0.1%. The value for `CC(C)C(C#CC(O)(c1ccccc1)c1ccccc1)N(C)C` (configuration not stated) was 3.6%; that for `CC(=O)NC(NC(C)=O)c1ccc(F)cc1` was -2.4%. Take `O=S(=O)(Nc1cccnc1)c1ccc(F)cc1`: the displacement was determined as 11.4%. The value for `O=C1CCCC2=C1C(c1ccc3c(c1)OCO3)Nc1ccc3ccccc3c12` (configuration not stated) was 9.5%; that for `Cc1ccc2oc(C(=O)Nc3ccc(Cl)cc3Cl)c(C)c2c1` was -5.3%; that for `N/C(=N\OC(=O)Cc1ccc(Cl)cc1)c1cccc([N+](=O)[O-])c1` was -1.7%. The value for `Cc1cc(C)nc(SCc2ccccc2Cl)n1` was 2%; that for `O=C1C2=C(C(c3ccccc3)=NCCN2)C(c2ccc(O)cc2)N1c1ccccc1` (configuration not stated) was 4.4%. Consider `CN(C)c1ccc(Nc2nc(-c3cccnc3)cs2)cc1`, for which the displacement stood at 9.6%. The value for `Cc1ccc(N(Cc2ccc(C(=O)NCc3ccco3)cc2)S(C)(=O)=O)cc1C` was -10.7%; that for `CCOc1cc(/C=C2/SC(=S)NC2=O)ccc1OCc1ccc(Cl)c(Cl)c1` was 2.3%.

Source of the values: PubChem BioAssay AID1240 (Sanford-Burnham Center for Chemical Genomics, 2008).
